Read-outs that look alike come from different tables or passages of the source.
Assays:
[1] = target: T1, human 4-1BB (CD137), cell-surface-expressed on Jurkat-hu4-1BB-NFkB-luc2 reporter cell line (human, UniProt Q07011 24-186); experiment: flow cytometry, Jurkat-hu4-1BB-NFkB-luc2 cells, gMFI curve
T1 construct: Reporter cell line bought from Promega; also called cell-expressed human 4-1BB

[2] = target: T1, human 4-1BB (CD137), …; experiment: cell-based or functional assay; parameters: unit not given beside the values
[3] = target: T1, human 4-1BB (CD137), …; experiment: cell-based or functional assay; parameters: AUC of activation curve, NFκB-luciferase in Jurkat-hu4-1BB-NFκB-luc2, crosslinking by WM-266-4 cells: unit not given beside the values
[4] = target: T1, human 4-1BB (CD137), …; experiment: flow cytometry, Jurkat-hu4-1BB-NFkB-luc2 cells, gMFI curve; remark: listed apart in the source
[5] = target: T2, human Fibroblast Activation Protein (FAP), cell-surface-expressed on NIH/3T3-huFAP clone 19 cells (human, UniProt Q12884 1-760); experiment: flow cytometry, NIH/3T3-huFAP clone 19 cells, gMFI curve
T2 construct: also called FAP-expressing cells

[6] = target: T1, human 4-1BB (CD137), …; experiment: flow cytometry, Jurkat-hu4-1BB-NFkB-luc2 cells, PE anti-human Fc detection

T1 sequence (Q07011 24-186): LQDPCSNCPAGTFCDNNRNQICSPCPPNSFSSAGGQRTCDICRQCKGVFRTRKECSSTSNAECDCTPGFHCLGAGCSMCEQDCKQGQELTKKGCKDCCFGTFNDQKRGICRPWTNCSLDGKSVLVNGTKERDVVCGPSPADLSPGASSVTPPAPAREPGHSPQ

B1: untargeted 2+2 DP47 x 4-1BB lipocalin huIgG4 SP control molecule (bispecific antibody)
heavy: [about 100 residues not listed]GSGFDYWGQGTLVTVSSASTKGPSVFPLAPCSRSTSESTAALGCLVKDYFPEPVTVSWNSGALTSGVHTFPAVLQSSGLYSLSSVVTVPSSSLGTKTYTCNVDHKPSNTKVDKRV[human IgG4 Fc with S228P F234A L235A (EU numbers) not listed]GGGGSGGGGSGGGGSQDSTSDLIPAPPLSKVPLQQNFQDNQFHGKWYVVGQAGNIRLREDKDPIKMMATIYELKEDKSYDVTMVKFDDKKCMYDIWTFVPGSQPGEFTLGKIKSFPGHTSSLVRVVSTNYNQHAMVFFKFVFQNREEFYITLYGRTKELTSELKENFIRFSKSLGLPENHIVFPVPIDQCIDG
light: [about 100 residues not listed][about 100 residues not listed]
notes: Untargeted control; also called DP47 x 4-1BB lipocalin huIgG4 SP 2+2
B1 was tested, and the “Area under the curve (AUC) of binding curve” value (“Area under the curve (AUC)” for short) [1] was 774, the “AUC of activation curve, NFκB-luciferase in Jurkat-hu4-1BB-NFκB-luc2, crosslinking by KPL4 cells” value [2] was 78 and the “AUC of activation curve, NFκB-luciferase in Jurkat-hu4-1BB-NFκB-luc2, crosslinking by NCI-N87 cells” value [2] was 394. The “AUC of activation curve, NFκB-luciferase in Jurkat-hu4-1BB-NFκB-luc2, crosslinking by SK-Br3 cells” value [2] was 101, the “AUC of activation curve, NFκB-luciferase in Jurkat-hu4-1BB-NFκB-luc2, crosslinking by NIH/3T3-huFAP clone 19 cells” value [3] was 1370 and the “AUC of activation curve, NFκB-luciferase in Jurkat-hu4-1BB-NFκB-luc2, crosslinking by WM-266-4 cells” value [3] was 355. For the same binder, the “Area under the curve (AUC)” value [4] was 1880, the “Area under the curve (AUC)” value [5] was 579 and the EC50 [6] was 0.92 nM.
